“And” between values parts separate entries of the source, which are not always exact repeats. Equal entries are not always repeated.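 Dose response: 5 concentrations. Exposure: 48 h. Format: 96-well plates. Endpoint: linear interpolation; highest concentration if not reached. At the GI50, growth is halved. Definition used: TGI = concentration required for complete inhibition of growth.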

The assay deals with NCI-H322M lung. Kind of assay: NCI-60 cell line screen, 48 h.
In the case of `COc1ccc(N2CCN(c3ccc4c(c3)NCC(=O)N4)CC2)cc1`, the TGI is over 100 µM.
As to `COc1ccc(-c2nnc3n(C)c(=O)c4ccccc4n23)cc1O`, the GI50 was 2.58 µM and the TGI is over 82.1 µM.
As for `COC(=O)Nc1nc2c(OC)c(OC)c(OC)cc2[nH]1`, the GI50 is 34.3 µM and the TGI was over 100 µM.
As for `COC(=O)c1ccc(C)cc1C1CN=NC12Cc1cc(C)c(C)cc1C2=O` (stereo not drawn), the TGI is over 100 µM.
Same read-out and setting: with `COc1cc2c(c3oc(-c4ccc5c(c4)OCO5)c(O)c(=O)c13)CCC(C)(C)O2` the figure was over 100 µM.
On the same count and under the same terms, with `Oc1[nH]c2ccccc2c1N=NC(=S)N1CCCCCC1` the figure was 6 µM; with `Cc1ccc(NC(=O)c2cccc([N+](=O)[O-])c2O)c(C)c1`, 72.7 µM.
For the molecule `O=C(c1ccc(O)cc1)c1ccc(C(=O)c2ccc(O)cc2)cc1`, the GI50 is over 100 µM and the TGI was over 100 µM.
As for `Cc1ccnc(NC(=S)Nc2ccccc2Cl)c1`, the TGI was over 100 µM.
The same measure, in the same setting: with `O=C1c2ccccc2C2(c3ccc(Cl)cc3)NCc3ccccc3CN12` (stereo not drawn) the figure was 41.8 µM.
`CC(C)OC(=O)c1ccc(CCC2=CC(=O)C(Br)=CC2=O)cc1`: the TGI is over 66.8 µM.
As to `COC(=O)[C@]12CC[C@@H](C)[C@H](C)[C@@H]1C1=CC[C@@H]3[C@@]4(C)C(c5ncon5)=C[C@@](C)(CO)C4=CC[C@@]3(C)[C@]1(C)CC2`, the GI50 was 3.88 µM and the TGI worked out at 14.8 µM.
For the molecule `C=C(C)CC1=C(C(=S)NCCO[Si](C)(C)C(C)(C)C)C(OCC)(OCC)C1=O`, the TGI turned out to be 41.8 µM.
Regarding `COc1cc(N(C)C)ccc1/C=c1/c2ccccc2n2c1cc(-c1ccccc1)[n+]2C`, the TGI turned out to be 2.09 µM.
Same read-out and setting: with `CC(=O)NC1C(OCc2ccccc2)OC(CO)C(O)C1OCC(=O)NC(C)C(=O)NC(CCC(=O)NCCCCCC(=O)Nc1ccc2c(c1)CN1C(=O)c3ccccc3C1=N2)C(N)=O` (stereo not drawn) the figure was over 100 µM; with `CCC(=N\NC(N)=S)/C(C)=N/O`, over 100 µM; with `O=c1c2c([nH]c3cc4c(cc13)OCO4)-c1ccccc1CCC2`, over 50 µM.
On the same count and under the same terms, with `Cc1cc(S(=O)(=O)O)ccc1N=Nc1ccc(N=Nc2c(O)ccc3ccccc23)c(C)c1` the figure was over 100 µM; with `C=CCC1NCCC2=C1C(S(=O)(=O)c1ccc(C)cc1)c1ccccc12` (stereo not drawn), 25.5 µM; with `Cc1cccc2c(N)c3cccc(C(=O)NCC[N+](C)(C)Cc4sc(N5CCOCC5)nc4[N+](=O)[O-])c3nc12`, 29.3 µM.
Molecule `Cc1ccc(O)c(Cc2nc3ccccc3nc2-c2cccc(Br)c2)c1` yielded a TGI of over 100 µM.
Same read-out and setting: with `CC(/C=N/NC1=NCCCCN1)=N\NC1=NCCCCN1` the figure was over 100 µM.
For the molecule `CC1=C[C@H]2c3c(c(O)c(O)c4oc5cc(O)cc(O)c5c(=O)c34)[C@H](c3cc(O)c(O)c4oc5cc(O)cc(O)c5c(=O)c34)[C@H]2C(C)(C)C1`, the GI50 was 1.92 µM and 2.28 µM; the TGI is 5.16 µM and 9.87 µM.
